# Sequences with one replicate were seen in a single cluster, so their values are uncertain.
# System: ATP
# Assay: switch fluorescence ratio, 500 uM ATP over buffer (Cy3 cluster intensity, sum of 5 cycles each) (fold (ratio)); higher = stronger signal-on switching upon ATP binding; sequences stand for … in TCGTCGGCAGCGTCAGATGTGTATAAGAGACAGTTTTTTTTTTTTTTTTTTTTTTTTT…TC
# Conditions: aptamer strand: ATP DNA aptamer (quencher-CACCTGGGGGAGTATTGCGGAGGAAGG + anchor), 100 nM annealed; ATP concentration: 500 uM; one replicate
# How it was run: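 Values give the fluorescence ratio for each switch-domain sequence, averaged from per-cluster ratios of summed target-cycle to summed buffer-cycle Cy3 intensity. The Cy3-labelled switching-strand clusters sat on a modified Illumina MiSeq flow-cell, were annealed to 100 nM quencher-labelled ATP aptamer, and were imaged in selection buffer, then after 15 min with 500 uM ATP at 22 °C. Five cycles ran with NaOH stripping and re-annealing between them, and clusters outside 100-1000 RFU were excluded.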
# 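Note: ATP exposure 15 min at 22 °C before imaging.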
row,Sequence,switch fluorescence ratio
1,GCGCTTGAAA,1.01
2,GCGCTTTATC,1.37
3,GCGCTTTGTA,1.03
4,GCGCTTTTT,0.937
5,GCGGAAAATT,0.988
6,GCGGAATGTC,1.03
7,GCGGACGGTG,1.01
8,GCGGACTTTG,1.01
9,GCGGAGGCCG,0.886
10,GCGGAGGGG,0.946
11,GCGGATCCTT,1.02
12,GCGGATTAAG,0.983
13,GCGGATTCGA,0.986
14,GCGGCACAGG,1.33
15,GCGGCGGACA,1.03
16,GCGGCGGCTG,0.992
17,GCGGGACGAA,1
18,GCGGGAGTGA,1.02
19,GCGGGCATGC,1.11
20,GCGGGCCAAA,1.24
21,GCGGGCCCAG,1.02
22,GCGGGCGAGG,1.02
23,GCGGGCTCGT,1.09
24,GCGGGCTCTG,0.989
25,GCGGGGAGTC,1.03
26,GCGGGGTGGT,1.03

row,Sequence,switch fluorescence ratio
1,GCGGGGTTAA,1.01
2,GCGGTAATAT,1.14
3,GCGGTAGAAT,0.971
4,GCGGTATTGA,0.985
5,GCGGTATTTT,0.953
6,GCGGTCCTGA,0.993
7,GCGGTCGAAT,0.97
8,GCGGTGGGCT,0.988
9,GCGGTGGGTC,1.03
10,GCGGTGTACG,0.985
11,GCGGTTAGGG,0.98
12,GCGGTTCAAT,0.989
13,GCGGTTGTTA,1.01
14,GCGTAACCTT,1.44
15,GCGTAAGCCA,0.946
16,GCGTAAGTGT,1.03
17,GCGTACATTT,1.02
18,GCGTACGCTA,1.03
19,GCGTAGAGAA,1.03
20,GCGTCCCTTC,0.961
21,GCGTCGATTT,1.02
22,GCGTCGGTGG,1.06
23,GCGTCGTAAG,1
24,GCGTCTTAGT,1.02
25,GCGTGAGTC,1.03
26,GCGTGAGTCT,0.888

row,Sequence,switch fluorescence ratio
1,GCGTGAGTGG,0.986
2,GCGTGGAACG,0.982
3,GCGTGGCGGG,0.996
4,GCGTGTAACC,1.02
5,GCGTGTCTGC,0.992
6,GCGTGTTCGG,0.976
7,GCGTTACTTG,1.18
8,GCGTTCGGTA,0.989
9,GCGTTGAAGG,1.06
10,GCGTTGAT,0.981
11,GCGTTGCAAG,0.994
12,GCGTTGCGCG,1
13,GCGTTGGGCG,0.995
14,GCGTTGTAAC,1.03
15,GCGTTGTGCG,0.957
16,GCGTTTAAGG,0.945
17,GCGTTTACAC,0.983
18,GCGTTTAGTT,0.998
19,GCGTTTTAG,0.967
20,GCGTTTTGCC,0.959
21,GCTAAAAAAC,1.02
22,GCTAAACTCT,1.03
23,GCTAAAGGGC,0.992
24,GCTAACACCG,1.09
25,GCTAAGAATC,0.973
26,GCTAAGGATT,0.93

row,Sequence,switch fluorescence ratio
1,GCTAATCAGC,0.995
2,GCTAATCGT,0.976
3,GCTAATGAA,0.992
4,GCTACGTTCT,1.01
5,GCTACTCGAC,1.39
6,GCTAGAAATA,0.98
7,GCTAGACTGC,0.938
8,GCTAGAGACC,0.986
9,GCTAGCAGG,0.979
10,GCTAGGGCCT,1.01
11,GCTAGTAAAT,0.986
12,GCTAGTAGAA,1.01
13,GCTAGTGAGC,1.01
14,GCTAGTGAGG,1.01
15,GCTAGTGGTT,0.952
16,GCTAGTTCGC,1.01
17,GCTAGTTGAA,1.01
18,GCTATACTCG,5.15
19,GCTATCAGGA,1.02
20,GCTATCCGGC,0.98
21,GCTATGCTCC,3.1
22,GCTATGTATG,0.937
23,GCTATTAACT,1
24,GCTCAAGCCG,0.977
25,GCTCAATATT,1.67
26,GCTCACGATC,1.27

row,Sequence,switch fluorescence ratio
1,GCTCACGATG,1.03
2,GCTCAGTCCT,0.989
3,GCTCCTATTT,0.981
4,GCTCGAAGTG,1.04
5,GCTCGCATAG,1.98
6,GCTCGGCAGT,2.15
7,GCTCTAAAAA,1.04
8,GCTCTAAACA,1.02
9,GCTCTAATCT,0.999
10,GCTCTACTTA,1.03
11,GCTCTCACTC,1.08
12,GCTCTTTCAC,1.06
13,GCTGACATGA,0.948
14,GCTGACTGTC,1.02
15,GCTGAGGGGC,0.945
16,GCTGAGTAGC,0.997
17,GCTGATAGT,1.02
18,GCTGCAGGC,0.989
19,GCTGCCTCAC,1.24
20,GCTGCGCGGC,1.03
21,GCTGCGCTCG,1.02
22,GCTGCGCTGA,1.2
23,GCTGCTCTTT,0.989
24,GCTGCTGGAT,0.998
25,GCTGGCTTTA,0.961
26,GCTGGGAGA,1

row,Sequence,switch fluorescence ratio
1,GCTGGGGCCG,0.988
2,GCTGTATCTG,1.06
3,GCTGTCCGCC,1.24
4,GCTGTCGCC,1.01
5,GCTTAAGCCG,1.02
6,GCTTAAGTAC,2.07
7,GCTTAAGTCC,1.04
8,GCTTATCACC,1
9,GCTTATTAAT,0.984
10,GCTTATTTA,1.03
11,GCTTCATGC,1.01
12,GCTTCCTACT,1.34
13,GCTTCGAGGC,1.02
14,GCTTCGCGGC,2.89
15,GCTTCGGATA,1.18
16,GCTTCGTC,1.02
17,GCTTCTACTT,1.03
18,GCTTGAGACG,1.09
19,GCTTGATGGT,0.977
20,GCTTGGA,1.02
21,GCTTGGATAG,1
22,GCTTGGGACG,0.976
23,GCTTGTAATA,1.03
24,GCTTGTGGGT,1.03
25,GCTTGTTCCA,1.02
26,GCTTGTTGCA,0.97

row,Sequence,switch fluorescence ratio
1,GCTTTAAGA,1.05
2,GCTTTCCGTG,1.07
3,GCTTTCCTCA,1.26
4,GCTTTCGGAA,1.14
5,GCTTTCTAAT,1.01
6,GCTTTGACCC,1.03
7,GCTTTGAGGG,0.988
8,GCTTTGCCGA,1.01
9,GCTTTGGTAA,0.974
10,GCTTTTGTAG,1.02
11,GCTTTTTTCC,1.18
12,GGAAAAATTT,0.987
13,GGAAAACGTT,0.98
14,GGAAAAGCGC,0.99
15,GGAAACTAAC,1.03
16,GGAAACTCGA,1.03
17,GGAAAGAGGC,1.02
18,GGAAAGCGCC,1.06
19,GGAAATACGG,1.09
20,GGAAATGAAA,1.02
21,GGAACCATCC,1.84
22,GGAACGCAGC,1.13
23,GGAACTAGAG,0.995
24,GGAACTAGTG,0.995
25,GGAAGATAGG,0.976
26,GGAAGATGGA,0.917

row,Sequence,switch fluorescence ratio
1,GGAAGCCGCG,0.994
2,GGAAGGGATA,1.01
3,GGAATAGAGA,0.986
4,GGAATAGTC,1.11
5,GGAATATGCG,1.01
6,GGAATATGTA,1
7,GGAATCCAGT,0.975
8,GGAATCGTAT,1.01
9,GGAATCTATA,0.952
10,GGAATGACCT,0.971
11,GGAATGATAC,1.11
12,GGAATGCGTA,1.05
13,GGAATGTAGT,0.957
14,GGAATGTATT,1
15,GGAATGTTCG,0.919
16,GGAATTGAGA,1.04
17,GGACAACAGT,1.01
18,GGACACCATA,1.04
19,GGACACTCAA,1.02
